{"source": "PubChem BioAssay AID1347165", "about": "(National Center for Advancing Translational Sciences (NCATS), 2019)", "note": "In all, about 220,000 compounds went through this assay and about 5,700 (2.6%) were called active. Inconclusive means that the source gave no clear call. Such entries were picked first, then a sample of the others. Calls come from the whole dose curve; as a rule, active = well fitted inhibition curve with a large enough effect; inconclusive = small, poorly fitted or top-dose-only effect; inactive = no such curve, though single readings can be large or run the other way. Potencies beside an inconclusive call are fits to weak or partial responses and may not hold up. Potency is the fitted concentration of half-maximal effect; tags give direction and shape of the fitted curve."}
{"biological_target": "Lysine-specific demethylase 5B (Homo sapiens) (UniProt Q9UGL1)", "sequence (Q9UGL1 whole entry, looked up)": "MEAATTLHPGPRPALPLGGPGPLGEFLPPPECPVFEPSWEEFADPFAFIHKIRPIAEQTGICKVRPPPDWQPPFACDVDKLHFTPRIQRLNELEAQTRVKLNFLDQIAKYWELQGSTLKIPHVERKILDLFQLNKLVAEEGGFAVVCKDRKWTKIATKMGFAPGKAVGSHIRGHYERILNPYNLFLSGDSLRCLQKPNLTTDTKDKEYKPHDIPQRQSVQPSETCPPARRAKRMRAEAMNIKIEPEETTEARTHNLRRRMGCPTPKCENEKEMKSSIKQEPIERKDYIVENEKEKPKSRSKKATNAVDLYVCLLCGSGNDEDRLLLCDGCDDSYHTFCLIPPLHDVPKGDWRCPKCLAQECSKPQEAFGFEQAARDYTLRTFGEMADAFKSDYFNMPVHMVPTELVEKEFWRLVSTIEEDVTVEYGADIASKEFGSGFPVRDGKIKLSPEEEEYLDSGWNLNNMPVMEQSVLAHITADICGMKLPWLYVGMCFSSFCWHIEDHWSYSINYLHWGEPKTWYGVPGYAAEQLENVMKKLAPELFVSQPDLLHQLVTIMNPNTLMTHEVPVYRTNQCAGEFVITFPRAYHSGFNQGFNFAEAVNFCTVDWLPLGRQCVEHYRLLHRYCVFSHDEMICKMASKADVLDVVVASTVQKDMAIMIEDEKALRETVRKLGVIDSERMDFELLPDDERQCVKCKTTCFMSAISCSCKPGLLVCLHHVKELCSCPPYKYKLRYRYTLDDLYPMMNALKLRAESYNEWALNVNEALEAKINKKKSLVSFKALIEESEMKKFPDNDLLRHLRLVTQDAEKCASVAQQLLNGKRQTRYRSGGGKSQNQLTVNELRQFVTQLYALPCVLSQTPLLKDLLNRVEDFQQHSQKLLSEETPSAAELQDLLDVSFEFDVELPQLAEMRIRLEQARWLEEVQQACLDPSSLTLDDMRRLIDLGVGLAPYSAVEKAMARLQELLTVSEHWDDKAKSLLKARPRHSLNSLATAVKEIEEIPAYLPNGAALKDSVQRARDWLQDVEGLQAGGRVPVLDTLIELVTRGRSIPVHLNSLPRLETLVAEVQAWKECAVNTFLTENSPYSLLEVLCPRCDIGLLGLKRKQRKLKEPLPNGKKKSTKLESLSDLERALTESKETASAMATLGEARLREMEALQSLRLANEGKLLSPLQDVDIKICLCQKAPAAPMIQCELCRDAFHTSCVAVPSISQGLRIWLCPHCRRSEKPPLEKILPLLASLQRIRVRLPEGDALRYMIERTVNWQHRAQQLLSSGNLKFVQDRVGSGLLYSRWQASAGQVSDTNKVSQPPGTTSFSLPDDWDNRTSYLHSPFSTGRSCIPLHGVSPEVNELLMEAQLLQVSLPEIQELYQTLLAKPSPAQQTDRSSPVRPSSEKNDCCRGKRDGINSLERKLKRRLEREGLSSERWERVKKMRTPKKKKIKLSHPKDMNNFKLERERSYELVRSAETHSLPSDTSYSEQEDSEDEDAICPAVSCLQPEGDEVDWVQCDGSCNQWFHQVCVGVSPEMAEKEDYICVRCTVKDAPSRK", "assay": "Primary screen for KDM5B Histone Demethylases FDH-coupled qHTS; note: nearly all actives have a fitted effect of over 70% in size", "conditions": "FDH-coupled NADH fluorescence (FDH is formaldehyde dehydrogenase); series mostly up to 57.7 µM", "in_short": "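Measured: NADH fluorescence change, 30 min, RT. System: KDM5BΔAP 200 nM final, H3K4me3 peptide, α-KG, Fe(II), ascorbate, NAD⁺ plus FDH, pH 7.5 HEPES. Compounds: titrated, 10 min pre-incubation with enzyme.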"}
{"smiles": "Cc1cccc(C(=O)Nc2ccc(N3CCC(CCN4CCOCC4)CC3)c(C(=O)O)c2)c1", "Potency": "inconclusive: 39.8 µM [inhibitor, single point]"}
{"smiles": "O=C(Nc1ccc(S(=O)(=O)N2CCC(c3nc4ccccc4s3)CC2)cc1)c1ccccc1F", "Potency": "inconclusive: 44.7 µM [inhibitor, single point]"}
{"smiles": "O=c1[nH]nc(SCc2nc(-c3ccc(Cl)cc3)no2)n2nc(-c3ccco3)cc12", "Potency": "inactive"}
{"smiles": "Cc1ccc(NC(=O)Cc2n[nH]c(=O)c3ccccc23)cc1", "Potency": "inactive"}
{"smiles": "CCCOc1ccc(C(=O)NCC2CCCO2)cc1Br", "note": "(centres undefined)", "Potency": "inactive"}
{"smiles": "C[C@@]1(O)CCN(CC2CCCCC2)C[C@H]1N1CCCC1", "Potency": "inconclusive: 25.1 µM [inhibitor, partial curve, poor fit]"}
{"smiles": "O[C@@H]1CC(CNCc2ccc(Cl)cc2)(COc2cccnc2)C[C@@H]1O", "note": "(some centres undefined)", "Potency": "inactive"}
{"smiles": "CCC(C)n1c(=N)c(S(=O)(=O)c2ccc(C)cc2)cc2c(=O)n3cc(C)ccc3nc21", "note": "(centres undefined)", "Potency": "inconclusive: 1.41 µM [inhibitor, full curve, poor fit]"}
{"smiles": "COC(=O)c1c(NC(=O)c2ccc(S(=O)(=O)N3CCCCC3C)cc2)sc2c1CCN(C(C)C)C2", "note": "(centres undefined)", "Potency": "inconclusive: 28.2 µM [inhibitor, single point]"}
{"smiles": "CCOC(=O)N1CCc2c(sc(NCc3ccc(OC)c(Br)c3)c2C(=O)Nc2cc(OC)ccc2OC)C1", "Potency": "inconclusive: 10 µM [inhibitor, partial curve, poor fit]"}
{"smiles": "O=S1(=O)NCC2(CCN(Cc3ccc(Cl)s3)CC2)Oc2ncccc21", "Potency": "inconclusive: 79.4 µM [inhibitor, partial curve]"}
{"smiles": "O=C1OCCC1NC(=S)Nc1cccc2ccccc12", "note": "(centres undefined)", "Potency": "inactive"}
{"smiles": "COCCNC(=O)c1ccc2c(c1)N(C)C(CC(=O)Nc1cccnc1)CO2", "note": "(centres undefined)", "Potency": "inconclusive: 28.2 µM [inhibitor, partial curve, poor fit]"}
{"smiles": "COc1ccc(-c2nc(CCNC(=O)c3cc(OC)c(OC)c(OC)c3)cs2)cc1", "Potency": "inconclusive: 15.8 µM [inhibitor, partial curve, poor fit]"}
{"smiles": "CC(=O)N1CCC(C2CCN(Cc3cc(F)c(F)cc3F)C2)CC1", "note": "(centres undefined)", "Potency": "inconclusive: 35.5 µM [inhibitor, partial curve, poor fit]"}
{"smiles": "N#Cc1ccccc1COc1ccc(C(=O)c2ccccc2)cc1", "Potency": "inactive"}
{"smiles": "CCOC(=O)c1cc(NC(=O)NC2CCCCC2)c(C)nc1C", "Potency": "inconclusive: 20 µM [inhibitor, partial curve, poor fit]"}
{"smiles": "O=C(CCSc1ccccc1)NCCc1ccc(F)cc1", "Potency": "inactive"}
{"smiles": "CCOc1ccc(C(=O)NCc2coc(-c3cccs3)n2)cc1", "Potency": "inconclusive: 39.8 µM [inhibitor, single point]"}
{"smiles": "Cc1ccc(-n2ncc3c(NNC(=O)c4ccccc4C)ncnc32)cc1", "Potency": "inconclusive: 1.12 µM [inhibitor, partial curve, poor fit]"}
{"smiles": "CNc1ccc(C(=O)N2CCC3(CCCNC3)C2)cc1", "note": "(centres undefined)", "Potency": "inconclusive: 5.01 µM [inhibitor, full curve, poor fit]"}
{"smiles": "CC1CCN(CC(=O)N(C)CC(=O)Nc2ccc(Cl)c(C(F)(F)F)c2)CC1", "Potency": "inactive"}
{"smiles": "CCCOc1ccc(C2C(=O)N(C3CCC(C)CC3)CC(=O)N2Cc2ccc(F)cc2)cc1OC", "note": "(centres undefined)", "Potency": "inactive"}
{"smiles": "O=C(N[C@@H]1COCC[C@@H]1OCC1CC1)c1conc1-c1ccccc1", "Potency": "inactive"}
{"smiles": "Cc1nn2c(c1-c1ccccc1Oc1ccccc1)N(C(=O)C(C)C)CCC2", "Potency": "inactive"}
{"smiles": "CC(=O)Nc1ccc(NC(=O)C2(C)CC2(Cl)Cl)cc1Cl", "note": "(centres undefined)", "Potency": "inactive"}
{"smiles": "COc1ccc(CCc2nc3nccc(-c4ccsc4)n3n2)cc1OC", "Potency": "inconclusive: 11.2 µM [inhibitor, partial curve, poor fit]"}
{"smiles": "COc1ccc(N(CC(=O)N2CCN(c3cc(C)ccc3C)CC2)S(=O)(=O)c2c(C)noc2C)cc1", "Potency": "inconclusive: 31.6 µM [inhibitor, single point]"}
{"smiles": "COc1ccc(NC(C)=O)cc1NC(=O)C1CC(=O)N(c2n[nH]c3cccc(F)c23)C1", "note": "(centres undefined)", "Potency": "inconclusive: 5.62 µM [inhibitor, partial curve, poor fit]"}
{"smiles": "CCC(=O)Oc1ccc2c(C)c(Cc3ccccc3)c(=O)oc2c1C", "Potency": "inactive"}
{"smiles": "O=C(Nc1ccccc1Br)C12CC3CC(CC(Cl)(C3)C1)C2", "Potency": "inactive"}
{"smiles": "COc1cccc(CC(=O)N2CC(COc3ccccc3)C3(C2)CN(c2ccccc2)C3)c1", "note": "(centres undefined)", "Potency": "inconclusive: 28.2 µM [inhibitor, single point]"}
{"smiles": "CN1c2cc(C(=O)Nc3ccc4c(c3)CCC4)ccc2C(=O)N2CCCCCC21", "note": "(centres undefined)", "Potency": "inconclusive: 28.2 µM [inhibitor, partial curve, poor fit]"}
{"smiles": "Cc1c(C(=O)NCCN(C)C)oc2c1-c1nn(Cc3ccccc3Cl)cc1CC2", "Potency": "inconclusive: 17.8 µM [inhibitor, partial curve, poor fit]"}
{"smiles": "COc1cccc(CN2Cc3cc(NC(=O)c4ccc(F)cc4F)ccc3OC(C)C2=O)c1", "note": "(centres undefined)", "Potency": "inconclusive: 39.8 µM [inhibitor, single point]"}
{"smiles": "CC(C)(C)CC(=O)NCC(=O)N1CCN(c2ccccn2)CC1", "Potency": "active: 28.2 µM"}
{"smiles": "CCc1ccc(/C=N/O)cc1", "Potency": "inactive"}
{"smiles": "Cc1ccc2[nH]c3c(c2c1)CN(C(=O)CN1CCN(C(=O)c2ccco2)CC1)CC3", "Potency": "inconclusive: 28.2 µM [inhibitor, partial curve, poor fit]"}
{"smiles": "CC(=O)c1cc(CCC(=O)OC(C)C(=O)C23CC4CC(CC(C4)C2)C3)oc1C", "note": "(centres undefined)", "Potency": "inactive"}
{"smiles": "CC(N)c1ccc(OC(F)F)cc1", "note": "(centres undefined)", "Potency": "inconclusive: 39.8 µM [inhibitor, single point]"}
{"smiles": "COc1ccc(Br)c2c1-c1nc(NC(=O)c3ccccc3SC)sc1C2", "Potency": "inconclusive: 5.01 µM [inhibitor, partial curve, poor fit]"}
{"smiles": "CCOc1ccc(N2CC(c3nc4ccccc4n3CCCOc3ccc(OC)cc3)CC2=O)cc1", "note": "(centres undefined)", "Potency": "inactive"}
{"smiles": "CC(=O)NCc1ccc(C(=O)CSc2ccc(NC(C)=O)cc2)cc1", "Potency": "inactive"}
{"smiles": "COCCNC(=O)CSc1nnc(-c2ccc(OC)c(OC)c2)c(-c2ccc(OC)c(OC)c2)n1", "Potency": "inconclusive: 28.2 µM [inhibitor, single point]"}
